The results in this text go back to PubChem BioAssay AID485344 (National Center for Advancing Translational Sciences (NCATS), 2010).

Among all 340,000 compounds or so, about 6,900 (2%) were called active. No stated cut-off is given here; in the data, active means inhibition above about 30%; inactive means below that, where a call was filed. This is a selection; strong and weak results do not stand in their true shares. The source gives no active or inactive call for entries shown without one.

UniProt P14416, sequence (P14416 whole entry, looked up): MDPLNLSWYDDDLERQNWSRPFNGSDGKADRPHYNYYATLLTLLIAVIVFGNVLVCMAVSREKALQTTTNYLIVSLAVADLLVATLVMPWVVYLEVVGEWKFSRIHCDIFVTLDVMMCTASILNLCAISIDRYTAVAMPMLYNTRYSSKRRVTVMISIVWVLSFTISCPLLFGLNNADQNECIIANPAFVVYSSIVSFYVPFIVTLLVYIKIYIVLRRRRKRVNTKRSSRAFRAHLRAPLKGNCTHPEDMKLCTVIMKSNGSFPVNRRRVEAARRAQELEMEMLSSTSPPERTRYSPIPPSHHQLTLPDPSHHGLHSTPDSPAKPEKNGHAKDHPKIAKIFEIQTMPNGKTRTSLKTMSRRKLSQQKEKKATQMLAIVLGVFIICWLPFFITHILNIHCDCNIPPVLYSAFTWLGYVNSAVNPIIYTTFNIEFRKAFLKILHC

The assay addresses D(2) dopamine receptor (Homo sapiens) (UniProt P14416). Nature of the assay: HTS Assay for Allosteric Antagonists of the Human D2 Dopamine Receptor: Primary Screen for Antagonists. Further: 0% is about no effect. Particulars: HEK293 TREx D2 cells, calcium flux, dopamine EC80; at 10 µM; stronger effect = higher value. A digest of the protocol:
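Tetracycline-induced HEK293 TREx cells expressing D2 receptor forced-coupled to calcium signalling, loaded with no-wash calcium dye. Compounds added and calcium flux read 180 s, then dopamine added at EC80 and read a further 180 s.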
(Calcium flux is commonly read through the fluorescence of an indicator in the cells.)
As usually defined, the inhibition is the relative decrease from the control value, in per cent. Consider `O=C(CSc1nccn1-c1cccc(Cl)c1)Nc1cccc2ccccc12`, for which the inhibition came out at 3.52%.

Take `CCOc1ccc(CCNC(=O)CCCc2nnc3n(CC)c(=O)c4sccc4n23)cc1`: the inhibition is -3.6%.

With `CCSc1ncc(Cl)c(C(=O)Nc2c(C(=O)Nc3ccccc3)oc3ccccc23)n1`, the inhibition is 9.11%.

As for `O=C(CCCCn1c(=O)c2ccccc2n(Cc2cccc(F)c2)c1=O)NCc1ccc2c(c1)OCO2`, the inhibition is -3.99%.

In the case of `Cc1cccc(Nc2c(-c3ccsc3)nc3nc(C)cc(C)n23)c1`, the inhibition turned out to be 6.99%.

In the case of `CCOC(=O)c1c(C)[nH]c(C)c1S(=O)(=O)N(C)CC(=O)NCc1ccc(Cl)cc1`, the inhibition turned out to be 8.1%.

Take `COc1ccc(-n2cnc3cc(C(=O)NC4CCCCCC4)ccc32)cc1`: the inhibition is -13.1%.

On to `Cc1ccc(C(=O)c2oc3ccccc3c2NC(=O)Cc2coc3ccc(C)cc23)cc1`, for which the inhibition was determined as 1.21%.

On to `O=C(O)c1ccc2nc(-c3cc4cc(Cl)ccc4oc3=O)[nH]c2c1`, for which the inhibition was -13.6%.

Consider `Cc1ccc(-c2nc3c4ccccc4n(CC(=O)NCc4ccc(F)cc4)c(=O)n3n2)cc1`, for which the inhibition is -0.928%.

On to `COc1ccc(C)cc1NC(=O)c1cnc2ccc(C)cn2c1=O`, for which the inhibition turned out to be 10.3%.

For `Cc1cc2c(cc3c(SCc4ccc(Cl)cc4)nncn32)o1`, the inhibition was 14.4%.

`COCCNC(=O)CCCn1c(SCC(=O)c2ccc(Br)cc2)nc2c(sc3ccccc32)c1=O`: the inhibition is -2.92%.

In the case of `O=C(OCc1c(Cl)cccc1Cl)c1ccccn1`, the inhibition is active: 34.7%.

`Cc1ccc(OCC(=O)NCC(c2ccc(Cl)cc2)N2CCOCC2)cc1C` (configuration not stated): the inhibition is -1.62%.

As to `Cc1ccn2c(=O)cc(COc3ccc(NC(=O)COc4ccc(C)c(C)c4)cc3)nc2c1`, the inhibition is -6.47%.

As to `CCOc1cc(C2c3c(oc4ccccc4c3=O)C(=O)N2Cc2ccc(OC)cc2)ccc1O` (configuration not stated), the inhibition turned out to be 6.43%.

For the molecule `CCOc1ccc(CNC(=O)c2ccc3[nH]c(C)c(C)c3c2)cc1OC`, the inhibition was -8.88%.

As to `CCc1ccc(NC(=O)N(Cc2c[nH]c3ccccc23)C2CCCCC2)cc1`, the inhibition worked out at 12.7%.

`CCOc1cc(C(=O)Nc2ccc(NC(=O)c3cc4ccccc4o3)c(OC)c2)cc(OCC)c1OCC`: the inhibition stood at 14.8%.

With `CCOc1ccc2nc(N3CCCC(C(=O)Nc4cc(C)ccc4C)C3)sc2c1` (configuration not stated), the inhibition came out at 3.69%.

Turning to `Cc1ccc(NC(=O)Nc2c[nH]c(=O)[nH]c2=O)c(Cl)c1`, the inhibition is -1.16%.

On to `Cc1ccc(C(=O)NCC(c2ccco2)N2CCCCC2)s1` (configuration not stated), for which the inhibition is active: 36%.

With `CC(=O)Nc1ccc(NC(=O)C2CCN(S(=O)(=O)c3ccc4c(c3)CCCC(=O)N4)CC2)cc1`, the inhibition turned out to be 3.77%.

As for `CCc1ccccc1NC(=O)CSc1nnc(-c2ccc(OC)cc2)s1`, the inhibition was determined as 16%.

For `Cc1ccc(NS(=O)(=O)c2cc(-c3cc(C)no3)ccc2C)c(Cl)c1`, the inhibition was 2.13%.

Turning to `Cc1cc(NC(=O)CCc2nc3cccnc3n2Cc2cccs2)ccc1Br`, the inhibition was determined as 1.78%.

Take `Cc1cccc(NC(=O)c2oc3ccccc3c2NC(=O)c2cc(=O)c3ccc(C)cc3o2)c1`: the inhibition worked out at 10.8%.

For the molecule `CSc1nc(C(=O)N2CCCC(N3CCN(c4ccccc4C)CC3)C2)cs1` (configuration not stated), the inhibition was active: 39%.

For the molecule `Cc1ccc(-n2c(=O)c3c(cnn3C)n(Cc3ccc(Cl)cc3)c2=O)cc1`, the inhibition is 13.3%.

Turning to `CCC1CN(C(=O)N2CCC(C(=O)NCc3cc(OC)c(OC)c(OC)c3)CC2)c2ccccc2O1` (configuration not stated), the inhibition was -2.22%.

Take `CN(C)c1ccc(NC(=O)Cn2nnc3sc4c(c3c2=O)CCC(C(C)(C)C)C4)cc1` (configuration not stated): the inhibition is 14.6%.

On to `CN(C)c1cccc(C(=O)Nc2nc3ccc(S(=O)(=O)N4CCCC4)cc3s2)c1`, for which the inhibition is -1.49%.

For the molecule `O=C(Nc1ccc(O)c(-c2nc3ccccc3o2)c1)c1ccc(Br)cc1`, the inhibition is -6.03%.

Take `CCSc1ncc(Cl)c(C(=O)Nc2nc3ccc(Cl)cc3s2)n1`: the inhibition was -24.3%.

For `CN(C)c1ccc(CNC(=O)CN2C(=O)CSc3ccc(S(=O)(=O)N4CCCC4)cc32)cc1`, the inhibition came out at 8.92%.

For the molecule `C[C@]12CCC(O)CC1CCC1C2CC[C@]2(C)C(c3cc(C(F)(F)F)n[nH]3)CCC12` (some centres not stated), the inhibition is active: 44.1%.

For the molecule `COc1ccc(NC(=O)CSC2=Nc3ccccc3N=C(c3ccc(F)cc3)C2)cc1OC`, the inhibition was -1.37%.

As to `CCN(C(=O)CCNC(=O)Cn1cnc2ccccc2c1=O)c1cc(OC)ccc1OC`, the inhibition is -10.1%.

Regarding `Cc1ccc2c(c1)c1c(c(=O)n(-c3ccccc3C)c(=O)n1CC(=O)c1ccc(Cl)cc1)n2C`, the inhibition is -4.72%.

Consider `O=[N+]([O-])c1ccc(OCCCCN2CCc3ccccc3C2)cc1`, for which the inhibition is active: 62.1%.

On to `CCN(CC)CCNC(=O)c1cc([N+](=O)[O-])c(N(C)C)cc1OC`, for which the inhibition was active: 94.1%.

In the case of `Cc1ccc(CNC(=O)CSc2nnc(C)c3c(C)n(-c4ccccc4)nc23)cc1`, the inhibition was -3.46%.

On to `CC1CCN(S(=O)(=O)c2ccc3c(ccc(=O)n3CC(=O)NCc3ccccc3Cl)c2)CC1`, for which the inhibition is -8.38%.

Consider `COc1cccc(CNCc2cccn2-c2nnc(N3CCN(c4ccccc4)CC3)s2)c1`, for which the inhibition stood at 16.8%.

For `COc1ccc(-c2[nH]ncc2C(=O)NCc2cccc(OC)c2)cc1`, the inhibition amounted to 2.35%.

Turning to `Cc1ccsc1CN(C(=O)COc1ccc(Cl)cc1)C1CCS(=O)(=O)C1` (configuration not stated), the inhibition was -1.69%.

With `O=C(CCn1c(=O)c2sccc2n(CC(=O)Nc2ccccc2)c1=O)NCc1ccccc1Cl`, the inhibition was -11.6%.

As to `CCn1c(=O)cc(SCC(=O)NCc2ccc(Cl)cc2)c2ccccc21`, the inhibition was -9.38%.

As for `COc1ccc(Cn2c(CCC(=O)Nc3ccc(C)cc3C)nc3cccnc32)cc1`, the inhibition was determined as 8.38%.

With `Cc1oc2ccc(O)c(CN3CCN(C)CC3)c2c1C(=O)Nc1ccccc1`, the inhibition amounted to 15.3%.

Regarding `COc1cccc(CNC(=O)c2cccc(-n3c(C)nc4cccnc43)c2C)c1`, the inhibition amounted to 6.05%.

For the molecule `OC1(c2ccc(Cl)cc2)CCN(Cc2cn[nH]c2-c2ccccc2)CC1`, the inhibition was active: 84%.

Regarding `CC(C)OCCCNC(=O)c1ccc(Cn2c(=O)c3cccn3c3cccnc32)cc1`, the inhibition was 0.0563%.

Consider `CCc1cc(C(=O)NCC(c2ccco2)N2CCCCC2)sc1C` (configuration not stated), for which the inhibition was active: 38.6%.

In the case of `O=C(O)Cc1sc(-c2ccc(C(=O)O)cc2)nc1-c1ccccc1`, the inhibition was active: 32.7%.

Take `Cc1oc2ncn(C)c(=O)c2c1C(=O)Nc1ccc(F)cc1`: the inhibition came out at 1.45%.

Consider `CCOC(=O)c1[nH]c(C)c(CCC(=O)Nc2ccccc2C(=O)OC)c1C`, for which the inhibition amounted to 2.46%.

In the case of `Cc1cc(N2CCN(c3ccc(F)cc3)CC2)n2nc(-c3ccc(Cl)cc3)nc2n1`, the inhibition is -7.09%.

Take `CCc1nn(CC(=O)NCCc2ccc(Cl)cc2)c(=O)c2cc3ccccc3n12`: the inhibition is -2.53%.

Regarding `Cc1ccc(-c2nnc(Nc3ccccc3)c3ccccc23)cc1S(=O)(=O)N1CCOCC1`, the inhibition is -4.1%.

As to `CCc1ccc2oc(=O)cc(CN3CCN(Cc4ccccc4)CC3)c2c1`, the inhibition is active: 38.6%.
